± gives the standard deviation of the averaged measurements. This is one part of the list.
tested on: PfAP2-EXP AP2 domain (GST-tagged); test: gcPBM binding intensity (ln(normalized median fluorescence intensity)); higher = stronger DNA binding
How it was run: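 Alexa488 anti-GST antibody, scanned at 488 nm, detected GST-tagged P. falciparum DNA-binding domains that had been expressed in E. coli and incubated for 1 h on an Agilent 4 × 180k array. The array carried primer-extended double-stranded 36-bp intergenic genomic probes and negative controls. Binding intensity is the highest Masliner-normalised natural-log median intensity across replicate spots of either orientation of each probe.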

Sequence	gcPBM binding intensity (ln)
TTTATACTTGTAAATGCACACATAAGATGCGACTAA [CACACA_site8662]	8.43 ± 0.32
ATATCCTTAAAAGATACACACATATGAATATTTTGT [CACACA_site3847]	8.28 ± 0.34
GTTTGTAAATATTTTACACACATATATATATATATA [CACACA_site1075]	10.2 ± 0.41
ATTATAGACACGCGCACACACAACAAAAAAAAAAAA [CACACA_site9180]	8.75 ± 0.62
TTGGGGTATCTTCCTATGCACACTTGTTATGTACTA [CACACA_site831]	9.14 ± 0.45
TTGCTCACAAGAAGCACACAAAAAAAGAAAAAAAAA [CACACA_site4047]	8.11 ± 0.24
TTGATTACTAGAAATGCACACACTGATAAAATAAGG [CACACA_site4134]	8.79 ± 0.32
ATACTTTTAAATTGATGTACTTTATTTATAAGGTGA [XGTACX_site6746]	8.38 ± 0.38
TACATGATATATCACACACACATATAAATATATATA [CACACA_site2831]	8.59 ± 0.45
TATAAAACGGATGAACAACAAATCATATGGCACAAA [TGCATGCA_negctrl_site608]	9.03 ± 0.071
TTCACAAAATATTATTGTACATTAAAATATTTATAT [XGTACX_site2535]	8.3 ± 0.37
GAAAATTTCTTATTTTGTACACACAATAAATATTCA [XGTACX_site3267]	8.4 ± 0.36
GTTTTTTTATTTCATCGTACAAAAAAGAAGGCTTTA [XGTACX_site5291]	8.4 ± 0.4
TTATATATTTATTTATGTACATATTTTTTTATTATA [XGTACX_site6115]	8.77 ± 0.33
TAAATATGTATTCATACATGCACATATATATATATA [TGCATGCA_site584]	10.2 ± 0.3
TAAAAAATAAAAAAAGCACACACATATATATATATA [CACACA_site8567]	10.3 ± 0.25
AAAATAAGAAATTGAAAAATTGAAAACAAAATTAAA [CACACA_negctrl_site1285]	8.33 ± 0.42
TTACAAATGTTTTACACACACATAATTGTATCAATT [CACACA_site6147]	8.51 ± 0.33
ACTACTCCATTAAGTAGTACACAAAAAAAAAAAATA [XGTACX_site7031]	8.44 ± 0.5

Sequence	gcPBM binding intensity (ln)
TAATAAAACATATATACACACATTATAAATACATAT [CACACA_site5014]	8.53 ± 0.35
TATAAATAAAAACACACACACATATATATATATATA [CACACA_site2319]	10.1 ± 0.32
CCATTTTAAATATGCACACAGATGCACTAACCCATT [CACACA_site1883]	9 ± 0.028
TAAAAATTAATATAAACACACAAAAATTAATAAATA [CACACA_site381]	8.51 ± 0.34
TCGGGAGGGGGGAAGCGTACATATATAAAATTATTA [XGTACX_site4683]	10.4
TATAACAAGTTATAAAGTACAAATGTTGAATTTTAT [XGTACX_site4673]	8.29 ± 0.4
TATAGATACAGATACACACACACACCGACATATATA [CACACA_site5832]	8.8 ± 0.48
GAATGTATATTCATGTATTTATTATTATTATTATTA [XGTACX_negctrl_site156]	8.26 ± 0.092
ATTATTTTACTAAAAGATATTCCTTTTTTTTGTACT [CACACA_negctrl_site998]	8.43 ± 0.38
TATGTATTTATATTAACACACAAAAAAAAAAAAAAA [CACACA_site5070]	8.22 ± 0.46
ATATGGCTAAAAGTTGCACACACACTAATAAAAAAA [CACACA_site9082]	8.68 ± 0.43
ATATGCCTAATAAAATGTACGTTTGTTTTATTTATT [XGTACX_site3833]	8.72 ± 0.57
ATATATATATTTTGGTAGCACCTCCTTTTTTTTTTT	9.48 ± 0.13
GCGAAATATTATTATAGTATACAAATACTTCTATGA [CACACA_negctrl_site197]	8.38 ± 0.33
ACAGTATCTGGTAGCTGTACGAGTCGTAGAGTGCAG [XGTACX_site2015]	8.95 ± 0.28
GGTAAGTACGACTTGACACACATACCCATATATATA [CACACA_site4837]	8.57 ± 0.3
GGTGTTAAAAAATACACACACAAAAAAAAAAAAAAA [CACACA_site138]	8.22 ± 0.57
TTTTTTTAATTTGGTTGTACTTAAAAAAAAAACAGA [XGTACX_site5788]	8.43 ± 0.36
TATATAAATAGACACACACACATATAAATATAAATA [CACACA_site6503]	8.77 ± 0.38

Sequence	gcPBM binding intensity (ln)
TTCTTCTGTTTTATTACACACCATTTTGTGGATACA [CACACA_site5181]	8.93 ± 0.29
TACCTAGGATTAAAGTGTCCACATAATTTAAATAAT [XGTACX_site6736]	9.02 ± 0.6
TTTTTTATTATATAATTGTATATAAAATTATAATTT [GTGCAC_negctrl_site733]	8.37 ± 0.35
TAACTTGAATGGATATGTACATATATATATATATAT [XGTACX_site5990]	10.1 ± 0.4
TAGATGTATGTACATACACACATATATAAATAAATA [CACACA_site1788]	8.61 ± 0.54
AATAAACATATATACACACACAAAAAAAAAAACATA [CACACA_site424]	8.65 ± 0.5
ATTCATCTATTTTGTAGTACTAAATATATATCTACT [XGTACX_site8790]	8.74 ± 0.28
TATTCTAATATTTATACACACATAACTTTGATAAAT [CACACA_site6418]	8.37 ± 0.46
ATTAATTATTGTAATTGTACATTTTATATATATCCA [XGTACX_site2105]	8.62 ± 0.37
TTTCTTGGGAGACATGCATGTACCAGAACAAAATAA [TGCATGCA_site272]	9.55 ± 0.54
TATATATAGCATATTTCACACACACCGAATGAATAT [CACACA_site9182]	8.64 ± 0.36
TTTTTTTTTTTATATACTGGAAATATATTTAATTTA [GTGCAC_negctrl_site250]	8.38 ± 0.33
TTTATTTTTATGGTCACACATATTTTTAAAACTATA [CACACA_site4372]	8.7 ± 0.2
TACAAAATAGTTTACACACACATATATATACATATA [CACACA_site2615]	8.41 ± 0.4
CACCCATAGAAACACACACACGCATAAAAAAAAAAA [CACACA_site1513]	8.62 ± 0.52
TAAAAACAAAAATGCACACATAATAAGCATATGTAT [CACACA_site3469]	8.55 ± 0.32
TTCATAAGAAGGAACTGTACATATTTTTCATTTTTT [XGTACX_site6770]	8.21 ± 0.38
AACAGGTCATAATTTACACACTATATATCTTATTAT [CACACA_site6461]	8.88 ± 0.57

Source: the supplement of paper PMC11417369
